The values below come from publication PMC5400551.

Amino acid sequences for entries named in this document (tags omitted).
UniProt P31749: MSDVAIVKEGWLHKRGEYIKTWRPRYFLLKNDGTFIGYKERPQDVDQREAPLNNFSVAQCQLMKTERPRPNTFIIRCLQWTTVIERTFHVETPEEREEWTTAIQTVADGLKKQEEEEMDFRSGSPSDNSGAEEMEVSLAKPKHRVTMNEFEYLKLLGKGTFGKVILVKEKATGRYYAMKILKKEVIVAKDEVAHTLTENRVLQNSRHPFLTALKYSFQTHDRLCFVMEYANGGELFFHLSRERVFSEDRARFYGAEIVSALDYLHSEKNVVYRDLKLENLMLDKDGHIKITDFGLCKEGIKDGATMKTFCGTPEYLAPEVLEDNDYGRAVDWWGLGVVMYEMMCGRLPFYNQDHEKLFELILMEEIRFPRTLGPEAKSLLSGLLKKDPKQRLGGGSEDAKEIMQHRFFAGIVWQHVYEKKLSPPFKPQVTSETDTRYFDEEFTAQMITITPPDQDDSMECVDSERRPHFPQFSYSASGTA

Results are given in words; binding and its absence hold for the method and conditions named. In cells and extracts the contact can be indirect. Some results given as binding are weak or reduced against the parent protein; the word gives no strength. For some assays here: Where a sequence is shown, tags or fusion partners need not be part of it.

Test [1] concerns the target AKT1 (human (endogenous in A549)) (UniProt P31749). The experiment in a line: co-IP; extracts of A549 cells transfected with plasmids of wild type RhebL1, RhebL1D60K or RhebL1Q64L; IP with AKT1 antibody, immunoblot with HA and AKT1 antibodies.
Test [2] shares this target. Put plainly: co-IP; extracts of A549 cells with or without 5 uM SPC for 1 h; IP with AKT1 antibody or RhebL1 antibody, protein A/G magnetic beads, immunoblot with AKT1 and RhebL1 antibodies. In general terms: Immunoblotting shows a protein as a band on a membrane.

B1: RhebL1 (protein, UniProt Q8TAI7 1-183)
chain: MPLVRYRKVVILGYRCVGKTSLAHQFVEGEFSEGYDPTVENTYSKIVTLGKDEFHLHLVDTAGQDEYSILPYSFIIGVHGYVLVYSVTSLHSFQVIESLYQKLHEGHGKTRVPVVLVGNKADLSPEREVQAVEGKKLAESWGATFMESSARENQLTQGIFTKVIQEIARVENSYGQERRCHLM
B1: the binding result in test [1] and in test [2] was “binds” each time.

B2: wild type RhebL1 (HA-tagged, from pcDNA3.1-HA) (protein, UniProt Q8TAI7 1-183)
chain: MPLVRYRKVVILGYRCVGKTSLAHQFVEGEFSEGYDPTVENTYSKIVTLGKDEFHLHLVDTAGQDEYSILPYSFIIGVHGYVLVYSVTSLHSFQVIESLYQKLHEGHGKTRVPVVLVGNKADLSPEREVQAVEGKKLAESWGATFMESSARENQLTQGIFTKVIQEIARVENSYGQERRCHLM
Regarding B2, in test [1], the binding entry is “binds”.

B3: RhebL1D60K (dominant negative, HA-tagged) (protein, UniProt Q8TAI7 1-183)
chain: MPLVRYRKVVILGYRCVGKTSLAHQFVEGEFSEGYDPTVENTYSKIVTLGKDEFHLHLVKTAGQDEYSILPYSFIIGVHGYVLVYSVTSLHSFQVIESLYQKLHEGHGKTRVPVVLVGNKADLSPEREVQAVEGKKLAESWGATFMESSARENQLTQGIFTKVIQEIARVENSYGQERRCHLM
For the molecule B3, the binding result in test [1] was “no binding”.

B4: RhebL1Q64L (constitutively active, HA-tagged) (protein, UniProt Q8TAI7 1-183)
chain: MPLVRYRKVVILGYRCVGKTSLAHQFVEGEFSEGYDPTVENTYSKIVTLGKDEFHLHLVDTAGLDEYSILPYSFIIGVHGYVLVYSVTSLHSFQVIESLYQKLHEGHGKTRVPVVLVGNKADLSPEREVQAVEGKKLAESWGATFMESSARENQLTQGIFTKVIQEIARVENSYGQERRCHLM
With B4, in test [1], the binding result is recorded as “binds”.
